In PubChem BioAssay AID488969 (Vanderbilt High Throughput Screening Facility, 2010):
In all, about 110,000 compounds were measured (“z-score”: median about -0.1, highest 2% from about 2 on). Some of the results follow.

These compounds were tested against Metabotropic glutamate receptor 8 (Rattus norvegicus) (UniProt P70579) (assay: rat mGluR8 modulators via GIRK flux, primary screen, cell-based, thallium flux, HTS (AID 488969)). Details: HEK293 rat mGluR8, GIRK (G protein-gated inwardly rectifying potassium channel) thallium flux, FluoZin2; at 10 µM; stronger effect = higher value; submaximal glutamate (EC20) added with thallium.
UniProt P70579, sequence (P70579 whole entry, looked up): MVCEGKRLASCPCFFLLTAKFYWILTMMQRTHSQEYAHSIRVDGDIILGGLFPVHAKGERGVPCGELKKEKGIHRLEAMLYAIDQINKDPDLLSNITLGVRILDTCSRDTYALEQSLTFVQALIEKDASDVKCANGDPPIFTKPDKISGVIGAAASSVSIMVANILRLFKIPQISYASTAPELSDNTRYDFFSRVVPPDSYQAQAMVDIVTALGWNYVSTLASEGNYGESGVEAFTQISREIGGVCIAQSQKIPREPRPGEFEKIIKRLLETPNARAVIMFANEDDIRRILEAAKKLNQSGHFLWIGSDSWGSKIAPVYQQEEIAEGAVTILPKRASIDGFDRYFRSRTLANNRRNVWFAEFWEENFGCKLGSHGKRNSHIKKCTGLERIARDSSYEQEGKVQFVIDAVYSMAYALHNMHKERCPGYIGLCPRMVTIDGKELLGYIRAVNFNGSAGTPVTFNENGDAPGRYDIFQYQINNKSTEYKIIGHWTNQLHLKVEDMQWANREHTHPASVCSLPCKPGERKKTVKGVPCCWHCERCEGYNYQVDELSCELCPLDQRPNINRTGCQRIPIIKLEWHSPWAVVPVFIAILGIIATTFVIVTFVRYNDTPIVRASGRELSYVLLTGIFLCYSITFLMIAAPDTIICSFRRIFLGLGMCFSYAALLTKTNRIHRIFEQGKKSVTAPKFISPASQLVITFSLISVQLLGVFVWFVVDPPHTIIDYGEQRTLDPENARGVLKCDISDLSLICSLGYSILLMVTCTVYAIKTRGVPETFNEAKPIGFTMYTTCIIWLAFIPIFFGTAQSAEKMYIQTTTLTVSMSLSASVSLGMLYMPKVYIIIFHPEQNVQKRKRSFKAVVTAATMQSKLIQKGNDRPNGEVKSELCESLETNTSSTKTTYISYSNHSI

SMILES	z-score
Cc1occc1C(=O)N/N=C/c1cnn(C)c1C	-0.5
C=CCNC(=S)Nc1cccc(NC(=S)NCC=C)c1	-0.329
CC1CCCCC1NC(=O)COc1ccc(-n2cnnn2)cc1 (centres undefined)	0.0113
CC1CCCN(c2nc3ccsc3c(=O)s2)C1 (centres undefined)	0.174
CCN(CC(=O)NCCc1ccc(S(N)(=O)=O)cc1)Cc1nc2cc(OC)c(OC)cc2c(=O)[nH]1	-0.0839
Cn1c(SCC(=O)N2CCCC2)nnc1-c1ccc(S(=O)(=O)N2CCCC2)cc1	-0.428
Cc1ccc(C(=O)OCC(=O)Nc2sccc2C(N)=O)cc1NC(=O)c1ccco1	-0.747
CCCc1ccc(-c2cc(C(=O)NC3=NCCS3)c3ccccc3n2)cc1	-0.175
O=S(=O)(c1ccc(-c2csc(-c3cccnc3)n2)cc1)N1CCCC1	-0.311
CCOC(=O)c1[nH]c(C)c(CN(Cc2ccco2)C(=O)C(F)(F)F)c1C	0.0968
Cc1ccc(C(=O)Oc2coc(CSc3nnc(NC(=O)C4CC4)s3)cc2=O)cc1	0.219
COc1ccc(S(=O)(=O)NC2CCCC2)c(Cl)c1Cl	-0.285
Nc1nnc(CC(=O)N/N=C/c2ccc(-c3ccccc3)o2)s1	-0.284
O=C(/C=C/c1ccc(-c2ccccc2[N+](=O)[O-])o1)c1ccccc1	-0.156
CCc1[nH]c(=O)c(C#N)c2c1COC(C)(C)C2	0.0687
CCOC(=O)c1csc(NC(=O)c2ccc(S(=O)(=O)N(CC)CC)cc2)n1	-0.407
CCn1c(=O)[nH]c2ccccc2c1=O	0.0176
CC1(C)CC(C)(O)N(Cc2ccccc2)C(=S)N1 (centres undefined)	1.2
CCOC(=O)C1CCCN(Cc2nc(N)nc(Nc3ccc(Cl)cc3)n2)C1 (centres undefined)	-0.508
COc1ccc(C(=O)NCCCN2CCOCC2)cc1OC	-0.193
Cc1cccc(-n2c(CCn3nc(C)c([N+](=O)[O-])c3C)n[nH]c2=S)c1	-0.129
O=C(NC1CCCCC1)N1CCCC1	0.37

SMILES	z-score
CCOC(=O)c1cccc(NC(=O)/C(=C\c2ccccc2)NC(=O)c2ccccc2Cl)c1	-0.208
CCCOc1ccc(C(=O)c2nc3c(n2O)CCCCC3)cc1	0.0386
O=C(CC1SC2=NCCN2C1=O)Nc1ccc(Cl)cc1 (centres undefined)	0.137
CC1(C)CC(=O)C2=C(C1)NC(Nc1nc3ccccc3o1)=NC21CCCC1	-0.199
O=c1[nH]c(-c2ccccc2F)nc2c1sc(=S)n2Cc1ccccc1	-0.139
CCOC(=O)c1c(C)nc2c(c1-c1ccccc1)C(=O)c1ccccc1-2	-0.384
O=C1CCC(C(=O)OCc2ccccc2)N1 (centres undefined)	1.22
CCn1cc(C(=O)N=c2sc3ccccc3n2C)c(=O)c2ccc(C)nc21	-0.387
CC(Oc1ccc(Cl)cc1Cl)C(=O)Nc1ncccn1 (centres undefined)	-2.15
CCOc1cccc(=O)c2c(C)oc(C)c12	-0.298
N#Cc1ccccc1OCC(=O)NC(N)=O	0.00914
CCn1ncc(/C=N/O)c1C	-0.443
O=C1C(C23CC4CC(CC(C4)C2)C3)C(=O)N(c2ccccc2)N1c1ccccc1	0.139
O=c1c2c(-c3cccs3)csc2ncn1-c1ccccc1	-0.0624
NC(=O)c1cc(-c2ccccc2)sc1NC(=O)CN1CCCCC1	0.0407
COc1cc(-c2nnc(SCc3c(F)cccc3Cl)o2)cc(OC)c1OC	-0.215
Cc1ccc(C)c(NC(=S)NNC(=O)c2ccc(Br)o2)c1	0.537
Clc1ccc(OCc2nnc(SCc3nc4ccccc4[nH]3)n2Cc2ccco2)cc1	-0.306
CNc1nc(-c2ccccc2)cc(C(F)(F)F)c1C#N	-0.14
O=C1C2C(c3ccccc3)C=CC(c3ccccc3)C2C(=O)N1c1cccnc1 (centres undefined)	-0.117
Cc1ccc(C(=O)Nc2ccncc2)o1	0.107
Cc1ccc(C(=O)N2CC3(C)CN(C(=O)c4ccc(C)cc4)CC(C)(C2)C3=O)cc1	-0.128

SMILES	z-score
O=C(Cn1c(NCCO)nc2ccccc21)NCCc1ccccc1	-1.04
COc1ccc(NC(=O)CNS(=O)(=O)c2ccccc2)cc1Cl	0.563
N#CC1=C(N)N(c2ncn[nH]2)C2=C(C(=O)CCC2)C1c1ccc(F)cc1 (centres undefined)	-0.0439
COc1nc(Cl)cn(-c2ccc(C)cc2)c1=O	-0.0681
C=CCn1c(SCC(=O)NC2CCCCC2)nnc1-c1sc(N)nc1C	-0.0778
COc1cccc(-c2cc(C(F)(F)F)nc(N3CCN(c4ccccc4)CC3)n2)c1	-1.21
CC(C)(C)c1ccc(C(=O)c2c[nH]c(C(=O)NCc3cccnc3)c2)cc1	-0.286
C=CCSc1nnc(-c2cc3c(s2)-c2ccccc2CC3)o1	-0.128
O=C(NCc1ccccc1)C1CC(=O)N(c2ccc(OCC(=O)N3CCCC3)cc2)C1 (centres undefined)	-0.544
COc1cc2c(cc1OC)CN(Cc1cc(=O)oc3cc(C)c(C)cc13)CC2	0.756
Cc1ccccc1-n1c(C)nc2ccccc21	-1.67
CCOCCCNc1nc2c(C)cccn2c(=O)c1/C=C1\SC(=S)N(CC(C)C)C1=O	-0.00528
Cc1c(NC(C)c2ccccc2O)c(=O)n(-c2ccccc2)n1C (centres undefined)	0.152
Cc1ccc(N2C(=O)CN(Cc3sccc3C)C2=S)cc1C	0.0203
C=CCN1C(=O)/C(=C/c2ccc(O)c(OC)c2)S/C1=N/c1nccs1	-0.0981
Cc1ccc(-n2c(C)cc(/C=N/NC(N)=S)c2C)cc1	-0.0027
CCc1cccc(CC)c1NC(=S)N1CCn2cccc2C1c1cccnc1 (centres undefined)	0.37
Cc1ccc(-n2c(N)c(C(=O)Nc3c(C)n(C)n(-c4ccccc4)c3=O)c3nc4ccccc4nc32)cc1	-0.373
O=C(Nc1cc(=O)c2ccccc2o1)N1CCOCC1	0.0681
CCc1cccc(NC2c3ccccc3C(=O)N2c2ccc(C)cn2)c1 (centres undefined)	-0.5
O=C(CS(=O)CC(=O)Nc1cccc2c1CCCC2)Nc1ccc(F)cc1 (centres undefined)	-0.101
N#Cc1c(Sc2ncc(C(F)(F)F)cc2Cl)nsc1C/C=N\OCc1ccccc1Br	-0.103

SMILES	z-score
CCCCn1nnc(NC(=O)c2ccco2)n1	-0.115
CN(C)S(=O)(=O)c1ccc(C(=O)Nc2nc(-c3cccs3)cs2)cc1	0.434
CCOC(=O)c1cnc(SC2CC(=O)N(c3ccc(OC)c(OC)c3)C2=O)nc1N (centres undefined)	-0.0718
COc1ccc(S(=O)(=O)N(C)CC(=O)Nc2ccccc2C(F)(F)F)cc1OC	0.543
COc1ccc(N(C(C)=O)S(=O)(=O)c2cccs2)cc1	0.0114
CC(=O)N/C(=N\OCc1ccc(Br)cc1)c1nonc1NC(C)=O	-0.0808
Cc1ccc(S(=O)(=O)NCCN=C(CN2CCOCC2)NS(=O)(=O)c2ccc(C)cc2)cc1	-0.52
Cc1ccccc1C(=O)NNC(=O)CSc1nnc(-c2ccncc2)n1-c1ccccc1	-0.143
N#Cc1cc2sc3nc4ccccc4n3c2cc1C#N	0.165
Cc1cc(C)nc(NN2C(=O)/C(=C/c3ccccc3)SC2=S)n1	-0.183
Cc1ccccc1OCC(=O)NC(=S)Nc1ccc2c3c(cccc13)CC2	0.22
Cc1nn(C(C)C(=O)Nc2sc3c(c2C#N)CCCC3)c(C)c1[N+](=O)[O-] (centres undefined)	-0.3
Cc1ccc(NC(=O)COc2ccc(-n3ccnc3)cc2)cc1Cl	-0.0663
COC(=O)c1nn(-c2ccccc2)c(Sc2ccc(C)cc2)c1/C=N/O	0.0362
CN(C1CCCCC1)S(=O)(=O)c1cccc(C(=O)OCC(=O)NC2CCCc3ccccc32)c1 (centres undefined)	-0.257
Cc1ccc(-n2nc3cc(C)c(NC(=S)NC(=O)/C=C/c4ccco4)cc3n2)cc1	0.457
COc1cccc(/C=C/C(=O)NCCc2ccc3c(c2)OCCO3)c1	-0.402
COc1ccc(C(NC(=O)C(C)(C)C)NC(=O)C(C)(C)C)cc1	0.0766
CCCCOC(=O)CNc1nnc(SCC(=O)OCC)[nH]c1=O	-0.241
COc1ccc(Cl)cc1NC(=O)Cn1c(=O)n2nc(C)nc2c2ccccc21	-0.181
CC(=O)Nc1ccc(NC(=O)C2CCN(c3c(Cc4ccccc4)c(C)nc4ncnn34)CC2)cc1	-0.271
O=C(NC1CCCC1)C(c1ccc(F)cc1)N(Cc1ccc(F)cc1)C(=O)CCl (centres undefined)	-1.37

SMILES	z-score
CC(C)c1ccc(C2N3CC4([N+](=O)[O-])CN2CC([N+](=O)[O-])(C3)C4(C)C)cc1 (centres undefined)	-0.2
Cc1cccc(NC(=O)C2CCN(S(=O)(=O)c3c(C)noc3/C=C/c3ccco3)CC2)n1	-0.221
Cc1c(NC(=O)C(C#N)=C2CCCCC2)c(=O)n(-c2ccccc2)n1C	-0.108
CCCCCCn1c(N(CC)CC)nc2c1c(=O)[nH]c(=O)n2C	-0.704
O=C(O)COc1ccc(=O)n(-c2ccccc2)n1	-0.184
CN1CCN(c2ccc([N+](=O)[O-])cc2C(=O)N2CCOCC2)CC1	-0.246
CC(=O)Oc1ccc(C)cc1-n1nc2ccccc2n1	-0.0619
NCCCCCc1nnc(SCc2ccc(Cl)c(Cl)c2)o1	0.93
COCc1cc(C)nc(OCC(=O)N/N=C/c2ccc(OC)c(OC)c2)c1C#N	-0.267
O=C(COc1nc2ccccc2nc1N1CCOCC1)NCC(F)(F)F	-0.11
CCOC(=O)CCc1c(C)c2ccc(O)cc2oc1=O	0.0647
COc1ccc(C)cc1NC(=O)COCC(=O)O	0.862
O=C(c1cccnc1)N1CCN(CCCc2ccccc2)CC1	-0.407
O=C(CN1C(=O)NC2(CCc3ccccc32)C1=O)Nc1ccc(N2CCOCC2)cc1 (centres undefined)	-0.205
O=C(Nc1nccs1)c1ccc(S(=O)(=O)c2ccccc2)cc1	0.246
Cc1cccc(C)c1N(CC(=O)N/N=C/c1cc(Br)c(C)o1)S(C)(=O)=O	-0.0896
O=C(Cn1c(=O)n(CC2CCCO2)c(=O)c2ccccc21)N1CCN(c2ccccc2)CC1 (centres undefined)	-0.348
Cc1ccc(-c2nc3cccnc3s2)cc1NS(=O)(=O)c1ccc2c(c1)OCCO2	0.273
O=C(/C=C/c1ccc(OCCCF)cc1)NCc1ccc(Cl)c(Cl)c1	-0.15
Cc1cccc(NC(=O)c2cc(-c3ccc(C)s3)nc3ccccc23)n1	-0.074
COc1ccc(CN=C(C)c2c(C(F)(F)F)[nH]n(-c3nc4ccccc4s3)c2=O)cc1	0.0112
